Experimental data from the supplement of paper PMC11417369.
The other results are listed elsewhere or left out.

These sequences were tested on PF3D7_0420300 AP2 domain 1 (GST-tagged) (assay: gcPBM binding intensity (ln(normalized median fluorescence intensity)); higher = stronger DNA binding).
How it was run: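 The binding buffer was 1× PBS containing 1% milk, 0.2 mg/ml BSA, 0.5% salmon testes DNA and 0.03% Triton X-100. In it, GST-tagged P. falciparum DNA-binding domains expressed in E. coli were applied for 1 h to an Agilent 4 × 180k array of primer-extended double-stranded 36-bp intergenic genomic probes plus negative controls. Binding intensity, read with Alexa488 anti-GST antibody and a 488 nm scan, is the highest Masliner-normalised natural-log median intensity across replicate spots of either probe orientation.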
“TTTATTAAATATATATGTACATATCAAAATGTATAA [XGTACX_site3181]” was tested, and the “gcPBM binding intensity (ln)” value was 9.05.
“GTTAAACATCTTCTGTGATATGTTAGAATATTATTT [CACACA_negctrl_site687]” was tested, and the “gcPBM binding intensity (ln)” value was 9.21.
With “TTTTTTTTCTATTGAGCACACATATCACGATTAGTA [CACACA_site7992]” the “gcPBM binding intensity (ln)” value was 9.23.
In the case of “TATTTCACAAACCTTACATGCGGTTTATTTATATAT [TGCATGCA_site123]”, the “gcPBM binding intensity (ln)” value is reported as 9.46.
With “TTTACACTTTTTTTTGTACACACTAAAAAGATTAAC [CACACA_site3933]” the “gcPBM binding intensity (ln)” value was 9.22.
In the case of “TGTTGTTACCTATATACACACATATAAATATTATAG [CACACA_site7180]”, the “gcPBM binding intensity (ln)” value is reported as 9.34.
“TTTTTCAGAAAAGAAACACACATATAAATATTTATA [CACACA_site7170]” was tested, and the “gcPBM binding intensity (ln)” value was 9.17.
With “AAAAAAAAAAAAAAAACACACAAGGATCAGATAGAT [CACACA_site7743]” the “gcPBM binding intensity (ln)” value was 9.8.
For “AGGGCATATATATATGCACACATACATATATACATG [CACACA_site9282]”, the “gcPBM binding intensity (ln)” value was 9.37.
“AATATTATGATATTATGTACATATTAAAAGCACCAC [XGTACX_site6236]” was tested, and the “gcPBM binding intensity (ln)” value was 9.58.
“TGGTATATACGACACACACACATATGTATAAATATA [CACACA_site6561]” was tested, and the “gcPBM binding intensity (ln)” value was 9.97.
In the case of “TATTTTTAAAAGTTAACAGAAAAAATATAAATAAAT [GTGCAC_negctrl_site295]”, the “gcPBM binding intensity (ln)” value is reported as 9.17.
With “TACCATAATCAATGCACACATAACAAAATATTATTA [CACACA_site2722]” the “gcPBM binding intensity (ln)” value was 9.48.
In the case of “TGTAATAAAATAATTAGTACACATATATGTATATTT [XGTACX_site5896]”, the “gcPBM binding intensity (ln)” value is reported as 9.22.
For “TTTTCCCTTTTTTCCGCACACAATAAAATAAATAAA [CACACA_site2807]”, the “gcPBM binding intensity (ln)” value was 9.4.
“ATATATATATAATGTTGTACGTTTTATTCTCCCATT [XGTACX_site8071]” was tested, and the “gcPBM binding intensity (ln)” value was 9.5.
“TTTATCATGAACAGAAGTACATTTATATCAATGTCT [XGTACX_site6470]” was tested, and the “gcPBM binding intensity (ln)” value was 9.1.
For “ATATATATATATTTTACACACAATGGAGAAAAAAAT [CACACA_site644]”, the “gcPBM binding intensity (ln)” value was 9.61.
For “TAAAAAAGAAAAAGAGCACACAAAAATATTTAACCT [CACACA_site8885]”, the “gcPBM binding intensity (ln)” value was 9.74.
For “TATATATTTATATATTGTACACTCTTATGTAGTGTA [XGTACX_site210]”, the “gcPBM binding intensity (ln)” value was 8.95.
For “TTACATATTTTCATTTGTACATATTCATTTTTTTTC [XGTACX_site6988]”, the “gcPBM binding intensity (ln)” value was 9.35.
For AAATAACCCACGTGCATGCACTTCAATAACTGAACT, the “gcPBM binding intensity (ln)” value was 9.59.
“ATGTCAGGGAAAAAAACACACAAGAGTATGATATGT [CACACA_site2180]” was tested, and the “gcPBM binding intensity (ln)” value was 9.53.
With “ATTTTTATATTTAATACACACATAAAATCATACCAT [CACACA_site23]” the “gcPBM binding intensity (ln)” value was 9.48.
For “AAAAAAATAATATAATATTAAATCTTAGTTAATAAA [GTGCAC_negctrl_site658]”, the “gcPBM binding intensity (ln)” value was 8.95.
With “AAAAAAAAAAAAAAAAAAACTAATATAATAAAAATA [TGCATGCA_negctrl_site150]” the “gcPBM binding intensity (ln)” value was 9.
With “TATGCATATACACAAGCACACATATATATATATATA [CACACA_site8266]” the “gcPBM binding intensity (ln)” value was 9.19.
With “TTTTTTTTTTTTTTTTCTTTTTTTTTTTTAAATAAG [XGTACX_negctrl_site418]” the “gcPBM binding intensity (ln)” value was 8.58.
In the case of “TTTTTTTTTTTTTACACACCCAAATCACATACATAT [CACACA_site6089]”, the “gcPBM binding intensity (ln)” value is reported as 9.29.
“AACATCTTATCATCATGTACGAAGCAGTTTTATAAG [XGTACX_site2490]” was tested, and the “gcPBM binding intensity (ln)” value was 9.17.
In the case of “TATAATAAATATACTGGTACACAAATATATATATTT [XGTACX_site7741]”, the “gcPBM binding intensity (ln)” value is reported as 9.33.
With “ATATTATATTTACATAGTACACTATATGTATATATA [XGTACX_site2101]” the “gcPBM binding intensity (ln)” value was 9.25.
“TGTAATTTTTTACGTTGTACATATATTAACAATATA [XGTACX_site3991]” was tested, and the “gcPBM binding intensity (ln)” value was 9.2.
For “ACATTGAATAAATAATGTACATATATAATATATATT [XGTACX_site95]”, the “gcPBM binding intensity (ln)” value was 9.17.
“AAATTAAATGTAAGCACACATAAATTATACGCATAT [CACACA_site3335]” was tested, and the “gcPBM binding intensity (ln)” value was 9.47.
With “TTGCAGTATTTCGGAACACACAAACATAAATATGTA [CACACA_site5307]” the “gcPBM binding intensity (ln)” value was 9.28.
For “AAATATTATTCATTTTGTACGTATAATTTTTAATGA [XGTACX_site3509]”, the “gcPBM binding intensity (ln)” value was 9.18.
In the case of “GATCTTTCACATATATATATAAAGGATATTATGGTA [CACACA_negctrl_site522]”, the “gcPBM binding intensity (ln)” value is reported as 9.18.
For “TATAATAATCCACAAGCACACACACCCACATATATA [CACACA_site8343]”, the “gcPBM binding intensity (ln)” value was 9.93.
“AGTAGTCTGGAGAAAAGTACACAGTATCTGGTAGCT [XGTACX_site2544]” was tested, and the “gcPBM binding intensity (ln)” value was 9.14.
With “ATTATATTATATTATACATGCATAATATTATATAAA [TGCATGCA_site647]” the “gcPBM binding intensity (ln)” value was 9.17.
“TTATTACACAAATGGTGTACTTTTGAGGAACCAAAA [XGTACX_site4279]” was tested, and the “gcPBM binding intensity (ln)” value was 8.94.
In the case of “AATATATACATACATACATGCACATATATATATATA [TGCATGCA_site393]”, the “gcPBM binding intensity (ln)” value is reported as 9.36.
“AAATAGTTGTTATGGGTGCAAACCACATATATATAA [GTGCAC_site9428]” was tested, and the “gcPBM binding intensity (ln)” value was 9.05.
“AGGCCTTTTAGTATTTCACACACGTAAATGTGTATA [CACACA_site8284]” was tested, and the “gcPBM binding intensity (ln)” value was 9.58.
“ATTTGTTTAAGTCACGAACACACATATATCATCAAT [CACACA_site985]” was tested, and the “gcPBM binding intensity (ln)” value was 9.41.
For “ATTATTTACCACAACACACAAATATTTACCAATCAT [CACACA_site5472]”, the “gcPBM binding intensity (ln)” value was 9.68.
In the case of “AATATAATATATTGCACACAAAAAGTGAATTATTCT [CACACA_site1684]”, the “gcPBM binding intensity (ln)” value is reported as 9.39.
With “GTTTATTAGGAATTATGTACACAGTTTTATAAAGAA [XGTACX_site2994]” the “gcPBM binding intensity (ln)” value was 9.14.
In the case of “TCATTATATTATTCTTGTACTTATATCCTTTTTTGA [XGTACX_site5320]”, the “gcPBM binding intensity (ln)” value is reported as 9.42.
For “TAAAAGTTCACCTGTACACACATATATATCTGTACA [CACACA_site5019]”, the “gcPBM binding intensity (ln)” value was 9.56.
For CAAAATATTATCATGATGCACTTTACACTCTAAGGT, the “gcPBM binding intensity (ln)” value was 9.17.
With “AAAAAATAAAAGTGGGGTACATGTCATTATGTGCAT [XGTACX_site3753]” the “gcPBM binding intensity (ln)” value was 9.68.
For “TTTTCATTCTTTTCCTTTGATTTACAATAGTATATT [GTGCAC_negctrl_site687]”, the “gcPBM binding intensity (ln)” value was 9.33.
For “ATATTATGTCTACATAAACACACATATATATAAAAA [CACACA_site7976]”, the “gcPBM binding intensity (ln)” value was 9.38.
For “AATAGTTATAAATATAAATATATATATATATATATA [CACACA_negctrl_site414]”, the “gcPBM binding intensity (ln)” value was 8.96.
With “TTACCATAAGTATGTGGTACACTTTAAATGAAGATA [XGTACX_site6972]” the “gcPBM binding intensity (ln)” value was 8.88.
